Results taken from the supplement of paper PMC8728848.
The list shows a part of the results.

Experiments:
Experiment in all cases: glycan array binding signal (z-score within array); higher = stronger binding
Conditions in all cases: glycan notation: IUPAC condensed, linker removed
[1] = target: GlcNAc(b1-2)Man(a1-3)[GlcNAc(b1-4)][GlcNAc(b1-2)Man(a1-6)]Man(b1-4)GlcNAc(b1-4)GlcNAc
Summary of the method: (§1)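 Glycan array data were curated from 3228 arrays in the Consortium for Functional Glycomics database and kept only where the protein sequence was available. Glycan names were converted to IUPAC-condensed notation, and columns mapping to the same glycan were averaged. The binding signal is a within-array Z-score, averaged across arrays of the same protein sequence at different concentrations or buffers and across linkers. Negative Z-scores can be read as non-binding.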

[2] = target: GlcNAc(b1-2)[GlcNAc(b1-4)]Man(a1-3)[GlcNAc(b1-2)Man(a1-6)]Man(b1-4)GlcNAc(b1-4)GlcNAc
Summary of the method: as §1

[3] = target: GlcNAc(b1-2)[GlcNAc(b1-4)]Man(a1-3)[GlcNAc(b1-4)][GlcNAc(b1-2)Man(a1-6)]Man(b1-4)GlcNAc(b1-4)GlcNAc
Summary of the method: as §1

[4] = target: GlcNAc(b1-2)[GlcNAc(b1-4)]Man(a1-3)[GlcNAc(b1-4)][GlcNAc(b1-2)[GlcNAc(b1-6)]Man(a1-6)]Man(b1-4)GlcNAc(b1-4)GlcNAc
Summary of the method: as §1

[5] = target: GlcNAc(b1-2)[GlcNAc(b1-6)]Man(a1-6)[GlcNAc(b1-2)Man(a1-3)]Man(b1-4)GlcNAc(b1-4)GlcNAc
Summary of the method: as §1

[6] = target: GlcNAc(b1-2)[GlcNAc(b1-6)]Man(a1-6)[GlcNAc(b1-2)Man(a1-3)][GlcNAc(b1-4)]Man(b1-4)GlcNAc(b1-4)GlcNAc
Summary of the method: as §1

[7] = target: GlcNAc(b1-3)Gal
Summary of the method: as §1

[8] = target: GlcNAc(b1-3)Gal(b1-3)GalNAc
Summary of the method: as §1

[9] = target: GlcNAc(b1-3)Gal(b1-4)Glc
Summary of the method: as §1

[10] = target: GlcNAc(b1-3)Gal(b1-4)GlcNAc
Summary of the method: as §1

[11] = target: GlcNAc(b1-3)Gal(b1-4)GlcNAc(b1-3)Gal(b1-4)GlcNAc
Summary of the method: as §1

[12] = target: GlcNAc(b1-3)GalNAc
Summary of the method: as §1

[13] = target: GlcNAc(b1-3)Man
Summary of the method: as §1

[14] = target: GlcNAc(b1-3)[GlcNAc(b1-4)][GlcNAc(b1-6)]GlcNAc
Summary of the method: as §1

[15] = target: GlcNAc(b1-3)[GlcNAc(b1-6)]Gal(b1-4)GlcNAc
Summary of the method: as §1

[16] = target: GlcNAc(b1-3)[GlcNAc(b1-6)]GalNAc
Summary of the method: as §1

[17] = target: GlcNAc(b1-4)Gal(b1-4)GlcNAc
Summary of the method: as §1

[18] = target: GlcNAc(b1-4)GlcNAc
Summary of the method: as §1

[19] = target: GlcNAc(b1-4)GlcNAc(b1-4)GlcNAc
Summary of the method: as §1

[20] = target: GlcNAc(b1-4)GlcNAc(b1-4)GlcNAc(b1-4)GlcNAc(b1-4)GlcNAc
Summary of the method: as §1

[21] = target: GlcNAc(b1-4)GlcNAc(b1-4)GlcNAc(b1-4)GlcNAc(b1-4)GlcNAc(b1-4)GlcNAc
Summary of the method: as §1

[22] = target: GlcNAc(b1-4)[GlcNAc(b1-6)]GalNAc
Summary of the method: as §1

[23] = target: GlcNAc(b1-6)Gal(b1-4)GlcNAc
Summary of the method: as §1

[24] = target: GlcNAc(b1-6)GalNAc
Summary of the method: as §1

[25] = target: GlcNAc3Prop(b1-4)GlcNAc
Summary of the method: as §1

[26] = target: GlcNAc6S(b1-3)Gal(b1-4)GlcNAc
Summary of the method: as §1

[27] = target: Kdn(a2-3)Gal(b1-3)GalNAc
Summary of the method: as §1

[28] = target: Kdn(a2-3)Gal(b1-3)GlcNAc
Summary of the method: as §1

[29] = target: Kdn(a2-3)Gal(b1-4)Glc
Summary of the method: as §1

[30] = target: Kdn(a2-3)Gal(b1-4)GlcNAc
Summary of the method: as §1

[31] = target: Kdn(a2-3)Gal(b1-4)[Fuc(a1-3)]GlcNAc
Summary of the method: as §1

[32] = target: Kdn(a2-6)Gal(b1-4)GlcNAc
Summary of the method: as §1

[33] = target: Man(a1-2)Man(a1-2)Man(a1-3)Man
Summary of the method: as §1

[34] = target: Man(a1-2)Man(a1-2)Man(a1-6)[Man(a1-3)]Man
Summary of the method: as §1

[35] = target: Man(a1-2)Man(a1-3)Man
Summary of the method: as §1

[36] = target: Man(a1-2)Man(a1-3)[Man(a1-2)Man(a1-6)]Man
Summary of the method: as §1

[37] = target: Man(a1-2)Man(a1-3)[Man(a1-2)Man(a1-6)]Man(a1-6)[Man(a1-2)Man(a1-2)Man(a1-3)]Man
Summary of the method: as §1

[38] = target: Man(a1-2)Man(a1-3)[Man(a1-2)Man(a1-6)]Man(a1-6)[Man(a1-2)Man(a1-2)Man(a1-3)]Man(b1-4)GlcNAc(b1-4)GlcNAc
Summary of the method: as §1

Measured: glycan array binding signal (z-score)

B1: SCA (Schizophyllum commune) (protein)
chain: MGIDQGVYLITNAGSGTAATLKDGYVKGWERIKGKEQLNQLWFVKSVKTSASDPGYAAFNLATNKVLDLEKGLADRGTPILGWDYHEGDNQHWVIKKQADGKYYKIQSVKTQTFVDLNNGGKDNGTKIQGWVGSWDETNSHQRWVFNQFSATGSRIKSILDTHPKIHGKVIVEWPDRIYFTPDQYIFEAIWAKTGLADIKPRDPLFQSEAYEKVFKGWVVSRAQEIIKVDGFDILVGSLSLVEKSTQKIKVLDVSVRTSDDKSPDLSQIVFFDPESGRTLVDIPEGYEVNSVII
-0.154: [27]
-0.162: [1] | [6] | [7] | [8] | [11] | [15] | [20] | [24] | [32] | [33]
-0.161: [4] | [14] | [16] | [18] | [19] | [21] | [22] | [23] | [26]
-0.157: [31] | [35]
-0.139: [5]
-0.158: [9]
-0.163: [13] | [17] | [28] | [30] | [38]
-0.152: [29]
-0.16: [2] | [36]
-0.164: [10]
-0.159: [3] | [12] | [25] | [34] | [37]
